This is one part of the list. At the low end of the ranking the order means little.
The sequences below were run against T1, GST-Rok (full length) (UniProt O34857) (assay: protein binding microarray). Conditions: Rok is a gene silencer of Bacillus subtilis; high values mean tight binding; most listed sequences are background and not binding sites; double strand, one strand shown.
T1 sequence: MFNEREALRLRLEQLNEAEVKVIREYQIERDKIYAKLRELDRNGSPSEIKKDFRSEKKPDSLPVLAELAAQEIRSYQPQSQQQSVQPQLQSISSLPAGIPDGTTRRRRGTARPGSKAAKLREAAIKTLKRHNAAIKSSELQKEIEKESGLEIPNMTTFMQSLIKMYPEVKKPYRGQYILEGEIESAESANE
Sequence ACTAACCA has a binding signal of 0.146 E-score. With CAAGCTCC the binding signal was -0.27 E-score. Sequence ATCCTCAC has a binding signal of -0.126 E-score. ACTCTACA gave a binding signal of 0.145 E-score. Work on AGCGACGG yielded a binding signal of -0.171 E-score. GCGAGTGA showed a binding signal of -0.0766 E-score. ATACATAC showed a binding signal of 0.372 E-score. CAATGAAC showed a binding signal of 0.0385 E-score. Work on GACCAGAA yielded a binding signal of -0.0532 E-score. With GAGCCCCA the binding signal was -0.397 E-score. CGCCGGAG was tested, and the binding signal was -0.106 E-score. Sequence CGATCCAA has a binding signal of -0.207 E-score. With CGCCCAAG the binding signal was -0.175 E-score. CTGTAGTC was tested, and the binding signal was 0.175 E-score. For GCATCGAC, the binding signal was 0.0744 E-score. For CAAAGTAC, the binding signal was 0.0729 E-score. AACAGGGC gave a binding signal of -0.232 E-score. CCATTGAC showed a binding signal of 0.0877 E-score. Work on ATCCGAAT yielded a binding signal of 0.0501 E-score. CGCTGGGC gave a binding signal of -0.321 E-score. Sequence ATATAATA has a binding signal of 0.452 E-score. Sequence AGATGGAA has a binding signal of -0.226 E-score. Work on CCGCCTGA yielded a binding signal of -0.198 E-score. For ACGGGCTG, the binding signal was -0.1 E-score. Sequence GACGCGCA has a binding signal of -0.296 E-score. In the case of TAAGCCTA, the binding signal is reported as -0.0764 E-score. With CATCTTAC the binding signal was 0.132 E-score. CGTTAGAA showed a binding signal of -0.0404 E-score. Work on CAGGTAAC yielded a binding signal of 0.0478 E-score. Work on GGAATTAA yielded a binding signal of 0.111 E-score. In the case of ACTGTATG, the binding signal is reported as 0.101 E-score. AGAGAAGG was tested, and the binding signal was -0.335 E-score. GAGAGTGA was tested, and the binding signal was -0.188 E-score. In the case of CTCTAACA, the binding signal is reported as 0.00593 E-score. ACGGAGAT gave a binding signal of 0.158 E-score. With CAGATTAC the binding signal was -0.0215 E-score. In the case of CACAGTTC, the binding signal is reported as 0.112 E-score. For CCGTGCCA, the binding signal was -0.232 E-score. For CTCAGGAA, the binding signal was -0.0328 E-score. ATTTATCC gave a binding signal of 0.156 E-score. In the case of ATCCAAAC, the binding signal is reported as 0.00735 E-score. With CTACCGAA the binding signal was 0.231 E-score. Work on CCGCCCAG yielded a binding signal of -0.271 E-score. For AAGGCTTG, the binding signal was -0.235 E-score. Sequence ACTTGGGC has a binding signal of -0.191 E-score. With AGTTCCAA the binding signal was -0.0894 E-score. AATGTGCT showed a binding signal of 0.205 E-score. With TACAGGAA the binding signal was 0.133 E-score. For CGCAGAGA, the binding signal was -0.228 E-score. With GAGTACTC the binding signal was -0.117 E-score. For AGGGCGAT, the binding signal was -0.22 E-score. In the case of AGACGCCC, the binding signal is reported as -0.302 E-score. With AACTCTCA the binding signal was 0.153 E-score. CGCATTTA showed a binding signal of 0.177 E-score. With AAGCAAGT the binding signal was 0.0333 E-score. For AATAATGG, the binding signal was 0.103 E-score. Work on TCTGTCCA yielded a binding signal of -0.0557 E-score. In the case of ATTGACGG, the binding signal is reported as -0.0146 E-score. For ATGGAACC, the binding signal was -0.105 E-score. Sequence ACGAGTGG has a binding signal of -0.0627 E-score. GACGACAC was tested, and the binding signal was -0.185 E-score. For ATTATCGA, the binding signal was 0.262 E-score. In the case of ATAAAAAT, the binding signal is reported as 0.171 E-score. For CACCTACA, the binding signal was 0.0695 E-score. Work on AGGCGAGG yielded a binding signal of -0.352 E-score. For AATGACGT, the binding signal was 0.0771 E-score. In the case of GGTCGTCA, the binding signal is reported as -0.161 E-score. GGGCACAA was tested, and the binding signal was -0.0531 E-score. With CATCTGAA the binding signal was -0.0979 E-score. For TACTCAGA, the binding signal was 0.161 E-score. Sequence TAGTCCAA has a binding signal of -0.00106 E-score. In the case of AAAGTGCC, the binding signal is reported as -0.299 E-score. Work on ATAATAAT yielded a binding signal of 0.372 E-score. Sequence ACGACCGC has a binding signal of 0.0315 E-score. In the case of TGCGAAAA, the binding signal is reported as -0.00761 E-score. ATTCCTTA showed a binding signal of -0.127 E-score. Work on GAAGTCGC yielded a binding signal of -0.192 E-score. With AAGGACTT the binding signal was -0.169 E-score. Sequence CGCACCCA has a binding signal of -0.0894 E-score. CGTCGATC showed a binding signal of -0.13 E-score. Work on CGTGGAAG yielded a binding signal of -0.188 E-score. Work on GGAAACCC yielded a binding signal of -0.314 E-score. CCTCAAGC gave a binding signal of -0.224 E-score. For ACTCCTGA, the binding signal was -0.121 E-score. For CAAGTCTA, the binding signal was -0.053 E-score. Work on ACGATATC yielded a binding signal of 0.252 E-score. AAGGCACA showed a binding signal of -0.233 E-score. In the case of GAAAAACC, the binding signal is reported as -0.115 E-score. For AGTAAACG, the binding signal was 0.101 E-score. CGTGGCGA showed a binding signal of -0.254 E-score. With ATCTGACC the binding signal was 0.0454 E-score. Sequence ACGCAATA has a binding signal of 0.202 E-score. For GCGCGTAA, the binding signal was 0.136 E-score. For AGACCCTA, the binding signal was -0.163 E-score. Sequence TAAGGCGA has a binding signal of -0.035 E-score. Work on ACAGCAGG yielded a binding signal of -0.205 E-score. AAGAGGAA was tested, and the binding signal was -0.19 E-score. Work on ACTTTCGG yielded a binding signal of -0.192 E-score. For AGCGCGCA, the binding signal was 0.0114 E-score. GCGGCTAA was tested, and the binding signal was -0.0978 E-score. GAGGTATA gave a binding signal of 0.161 E-score. Sequence ACGTGGCA has a binding signal of -0.184 E-score. Work on CGACAACG yielded a binding signal of -0.167 E-score. With CGGTTAAG the binding signal was 0.0308 E-score. Sequence CTGCTATA has a binding signal of 0.0937 E-score. In the case of CGACCTGA, the binding signal is reported as -0.0268 E-score. AGACTAAC gave a binding signal of -0.0122 E-score. Sequence AACACTGA has a binding signal of -0.0136 E-score. Sequence GTGTTGAA has a binding signal of 0.102 E-score. AATTTTCT showed a binding signal of 0.232 E-score. For ATTATCTG, the binding signal was 0.284 E-score. For ACATGTGA, the binding signal was 0.0741 E-score. Sequence GCGCGTAC has a binding signal of -0.0999 E-score. GACTACGC was tested, and the binding signal was 0.0227 E-score. AACGCACG was tested, and the binding signal was -0.176 E-score. Work on AATTCTAT yielded a binding signal of 0.31 E-score. AAGAATTG gave a binding signal of 0.0616 E-score. For ACTGGGCG, the binding signal was -0.192 E-score. Work on CCTTGCCA yielded a binding signal of -0.197 E-score. AACAGTCA was tested, and the binding signal was -0.073 E-score. Work on AGCATTAC yielded a binding signal of 0.0579 E-score. GGCTCCGA showed a binding signal of -0.283 E-score. For CGGATCCA, the binding signal was -0.173 E-score. With ATTGGTAC the binding signal was 0.289 E-score. ACCCCGGA gave a binding signal of -0.255 E-score. Work on TAGCGCTA yielded a binding signal of 0.101 E-score. In the case of CAATCATG, the binding signal is reported as 0.0159 E-score. Work on AGATAAAG yielded a binding signal of 0.119 E-score. Sequence TTATCAAA has a binding signal of 0.162 E-score. Sequence GATGCTAA has a binding signal of 0.0177 E-score. Sequence CTGGACAG has a binding signal of -0.126 E-score. With AGGATGAG the binding signal was -0.0521 E-score. Sequence ATGTTTGC has a binding signal of 0.107 E-score. In the case of ATCTCTGA, the binding signal is reported as -0.0215 E-score. Sequence AATCTCGC has a binding signal of 0.173 E-score. Work on AAAACCGT yielded a binding signal of -0.126 E-score. TGCTTAAA was tested, and the binding signal was 0.0507 E-score. For GAGCTGGA, the binding signal was -0.00746 E-score. ACCCCGAC gave a binding signal of -0.0318 E-score. For ATCGCGAA, the binding signal was 0.17 E-score. AGTGCCGA was tested, and the binding signal was -0.184 E-score. Work on AAACTCGG yielded a binding signal of 0.063 E-score. For TACGACTA, the binding signal was 0.159 E-score. CGATACAG showed a binding signal of -0.0138 E-score. Sequence ACGTGAGT has a binding signal of 0.0378 E-score. GAGGATGA was tested, and the binding signal was -0.299 E-score. In the case of TACCAGTA, the binding signal is reported as 0.28 E-score. Work on GAGTTTAA yielded a binding signal of 0.0608 E-score. CGCCAGCA was tested, and the binding signal was -0.0358 E-score. Work on GCTCGATA yielded a binding signal of 0.0812 E-score. In the case of GAGATCTC, the binding signal is reported as -0.133 E-score. CAGGAGCC was tested, and the binding signal was -0.32 E-score. CTCAACAG gave a binding signal of -0.0757 E-score. TGCGCCCA showed a binding signal of -0.193 E-score. ATTTCAGG showed a binding signal of -0.225 E-score. TCTCATAA showed a binding signal of 0.0733 E-score. In the case of ACTCCAGA, the binding signal is reported as -0.119 E-score. Sequence TACTAAGA has a binding signal of 0.229 E-score. In the case of GGTTAGAC, the binding signal is reported as -0.117 E-score. With GGACGGTA the binding signal was 0.148 E-score. GATCTGAA showed a binding signal of -0.0373 E-score. AGTAACCG showed a binding signal of -0.0688 E-score. In the case of AAGTCAAA, the binding signal is reported as -0.0079 E-score. Sequence CCCCACCA has a binding signal of -0.354 E-score. GATGCGTA gave a binding signal of 0.0578 E-score. Work on GTTTGCAA yielded a binding signal of 0.127 E-score. In the case of AGACACCA, the binding signal is reported as -0.179 E-score. GAAATGAC gave a binding signal of -0.00813 E-score. In the case of TAAACTTA, the binding signal is reported as 0.169 E-score. For GTGCTGTA, the binding signal was 0.168 E-score. With ATAACAAT the binding signal was 0.266 E-score. AAAGGTAA gave a binding signal of 0.0103 E-score.

Source: PMC6212790
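Further: rank score from −0.5 (least bound) to 0.5 (best bound).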
